Out of some 200,000 compounds screened, about 10 (0.005%) were called active. Inconclusive means that the source gave no clear call. Such entries were picked first, then a sample of the others. The call rests on the fitted dose curve; in most records, active means well fitted inhibition curve with a large enough effect; inconclusive means small, poorly fitted or top-dose-only effect, or effect the other way, or another doubt; inactive means no such curve, though single readings can be large or run the other way. Where the call is inconclusive, the potency comes from a doubtful curve fit.
What follows are compounds tested against Lysosomal alpha-glucosidase (Homo sapiens) (UniProt P10253) (assay: qHTS Assay for Inhibitors of Human alpha-Glucosidase as a Potential Chaperone Treatment of Pompe Disease). Details: purified human GAA, 4-MU-alpha-glucoside fluorescence; activity change, negative = inhibition: at 76.9 µM (top of the series) unless noted.
How it was run: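 Read-out is 4-methylumbelliferone fluorescence (Ex 365/Em 440 nm) after NaOH/glycine stop at pH 10. Enzyme 4 nM, substrate 400 uM, pH 5.0 citrate buffer, 20 min room temperature; AC50 from Hill-equation concentration-response.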
Potency means the concentration at half of the fitted maximal effect; tags describe the fitted curve by direction and shape.
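Wherever activity change, negative = inhibition is given: plate controls were uninhibited enzyme wells for no effect and no-enzyme background for full effect.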

Potency, inconclusive:
CCS(=O)(=O)N1Cc2ccccc2CC1C(=O)NC(C)C12CC3CC(CC(C3)C1)C2 (stereo not given) 6.31 µM [inhibitor, partial curve]
O=C(CCc1ccccc1)NCCc1nc2ccccc2[nH]1 35.5 µM [inhibitor, single point]
Cc1nc(NS(=O)(=O)c2ccccc2)sc1C(C)(C)C 44.7 µM [inhibitor, single point]
O=C(c1ccccc1)c1cccc(NC(=O)C2CC2)c1 11.2 µM [inhibitor, single point]
C/C(=N\NC(=O)CC1N=C(Cc2ccccc2)NNC1=O)c1ccc(Cl)cc1Cl (stereo not given) 56.2 µM [inhibitor, single point]
Cc1ccc(N(C)C(=O)N2CCN(S(=O)(=O)c3ccc(C)cc3)CC2)cc1 39.8 µM [inhibitor, single point]
CCOC(=O)c1[nH]c2ccc(OC)cc2c1NC(=O)C(C)N1CCSCC1 (stereo not given) 20 µM [inhibitor, partial curve]
CCn1c2ccccc2c2c3ncc4cccn4c3ccc21 35.5 µM [activator, partial curve]
CCc1nnc(NC(=O)c2cccc(S(=O)(=O)N3CC(c4ccccc4)CC3=O)c2)s1 (stereo not given) 11.2 µM [inhibitor, single point]
Cc1ccc(-n2c(=O)[nH]c3c(C(N)=O)nc(CC(C)C)nc32)cc1 11.2 µM [inhibitor, single point]
Cc1ccc(-c2c3c(nc4sc(C(N)=O)c(N)c24)CCC3)cc1 11.2 µM [inhibitor, partial curve, poor fit]
Cc1ccc(C(=O)c2coc3ccc(O)c(CN4CCN(C)CC4)c23)cc1 11.2 µM [inhibitor, single point]
Cc1ccc(NC(=O)c2oc3ccc(S(=O)(=O)N4CCC5(CC4)OCCO5)cc3c2C)cc1C 3.16 µM [inhibitor, partial curve, poor fit]
CCCCCCCCC(=O)N/N=C(\C)c1ccco1 25.1 µM [inhibitor, single point]
CCN(c1cccc(C)c1)S(=O)(=O)c1ccc2c(c1)CCN2C(C)=O 25.1 µM [inhibitor, partial curve, poor fit]
CC1CCCN(C(=O)COC(=O)c2n[nH]c3ccccc23)C1 (stereo not given) 56.2 µM [inhibitor, single point]
O=c1c(-c2nc3ccccc3s2)cccn1Cc1ccc(Cl)cc1 10 µM [activator, partial curve]
N#Cc1c(C(F)(F)F)cc(-c2cccc(Cl)c2)[nH]c1=O 39.8 µM [activator, partial curve]
Cc1cc(C)c(S(=O)(=O)N2CCCC2=O)c(C)c1 0.158 µM [activator, full curve, poor fit]
COc1ccc(Cn2c(=O)[nH]c3cc(C(=O)NCCCN4CCCC4)ccc3c2=O)cc1 31.6 µM [activator, partial curve]
Cc1cccc(NC(=O)c2ccc(COc3ccc(Cl)cc3Cl)o2)n1 50.1 µM [inhibitor, single point]
O=C(Cn1ncc2c(=O)oc3ccccc3c21)NCCc1ccsc1 0.158 µM [inhibitor, full curve, poor fit]
COC(=O)C1=CN(CCCN2CCCC2=O)C=C(C(=O)OC)C1c1ccccc1C(F)(F)F 28.2 µM [activator, partial curve]
CCCOc1ccccc1NC(=O)c1ccc(N)cc1 39.8 µM [inhibitor, single point]
CCCCCCCC(=O)OCC(=O)[C@@]1(O)CC[C@H]2[C@@H]3CCC4=CC(=O)CC[C@]4(C)[C@H]3[C@@H](O)C[C@@]21C 11.2 µM [inhibitor, single point]
CCSc1nnc([C@H](Cc2c[nH]c3ccccc23)NC(=O)OC(C)(C)C)o1 25.1 µM [inhibitor, single point]
COc1ccc(-c2cc(C(F)F)n3ncc(C(=O)N4CCCc5ccccc54)c3n2)cc1 10 µM [inhibitor, partial curve]
O=C(CSc1nnc(-c2ccncc2)n1CC1CCCO1)Nc1ccccc1Cl (stereo not given) 0.398 µM [activator, full curve]
CCSC1=NCCN1S(=O)(=O)c1ccc(NC(C)=O)cc1 0.158 µM [inhibitor, full curve, poor fit]
CC(C)(C)CC(=O)NC(=S)Nc1ccccc1C(F)(F)F 56.2 µM [inhibitor, single point]
COc1cccc(NC(=O)Cn2nc(Cc3cccnc3)c3ccccc3c2=O)c1 56.2 µM [inhibitor, single point]
N#CC1=C(N)Oc2n[nH]c(-c3ccc(F)cc3)c2C1c1cccc(OC(=O)N2CCOCC2)c1 (stereo not given) 25.1 µM [inhibitor, partial curve]

Potency, inactive:
O=C(CN1C(=O)C2CC=CCC2C1=O)Nc1ccc(S(=O)(=O)N2CCOCC2)cc1 (stereo not given)
O=C(Nc1ccccn1)c1ccc2c(c1)OCCO2

Activity change, negative = inhibition, inconclusive:
Cc1ccccc1-c1nc(CN(Cc2c(C)nn(C)c2C)C2CC2)c(C)o1 15.7% [activator]
Cc1ccc2nc(Cl)c3nnnn3c2c1 18.1% [activator]
S=C(c1c[nH]c2ccccc12)N1CCOCC1 15.4% [activator]
O=C(CSc1cccc[n+]1[O-])Nc1ccccc1Oc1ccccc1 10.1% [activator]
Cc1cc(NC(=O)CSc2ccc3c(c2)OCCO3)no1 8.34% [activator]
O=C(CS(=O)(=O)Cc1ccccc1)NCC1CCCO1 (stereo not given) -18.7% [inhibitor]
